Results from the supplement of paper PMC9446081.
Screen size: about 39,000 compounds; about 220 (0.56%) showed activity. The list shows a part of the results.

System: Escherichia coli K-12 BW25113
Test: relative growth (OD600 normalised to plate interquartile mean) (fraction); higher = less growth inhibition, active = 0.2 or less
Details: 50 µM; LB; incubation time: overnight (16-24 h)
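Also: static incubation at 37 °C against the wild-type strain, values averaged over two biological replicates.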

SMILES	relative growth
COc1ccc(C#Cc2ccc3c(c2)O[C@@H](CN(C)S(=O)(=O)c2ccccc2F)[C@H](C)CN([C@H](C)CO)S3(=O)=O)cc1	inactive: 1.06
NCCCC(=O)O	inactive: 0.994
C[C@H]1CN([C@@H](C)CO)C(=O)c2cccc(NC(=O)c3nc4ccccc4s3)c2O[C@H]1CN(C)Cc1ccc(C(F)(F)F)cc1	inactive: 0.988
COc1cc(OC)c(NC(=O)Cn2c(=O)n(-c3ccc(CC(=O)NC[C@H]4CCCO4)cc3)c(=O)c3ccccc32)cc1Cl	inactive: 0.984
Cc1noc(C)c1NC(=O)N(C)C[C@@H]1Oc2ccc(NC(=O)C3CC3)cc2C(=O)N([C@H](C)CO)C[C@@H]1C	inactive: 0.961
Cc1ncc(CO)c(CO)c1O	inactive: 0.987
C[C@H]1CN([C@@H](C)CO)S(=O)(=O)c2ccc(C#CCN(C)C)cc2O[C@@H]1CN(C)Cc1ccccc1F	inactive: 0.995
COc1cccc2cc(C(C)=O)oc12	inactive: 1.02
C[C@H]1CN([C@@H](C)CO)C(=O)Cc2cc(NC(=O)Cn3cnnn3)ccc2O[C@H]1CN(C)CC1CCCCC1	inactive: 0.977
C[C@@H]1CN([C@H](C)CO)C(=O)c2cccc(NC(=O)Nc3ccc(C(F)(F)F)cc3)c2O[C@H]1CN(C)C(=O)Nc1ccc(C(F)(F)F)cc1	inactive: 0.978
CNC(=NC#N)NCCSCc1nc[nH]c1C	inactive: 1.08
COc1ccc(NC(=O)N(C)C[C@H]2Oc3c(NC(=O)Nc4cccc5ccccc45)cccc3C(=O)N([C@H](C)CO)C[C@@H]2C)cc1	inactive: 1
C[C@@H]1CN([C@@H](C)CO)C(=O)c2cccc(NC(=O)c3ccc(-c4nccs4)cc3)c2O[C@@H]1CN(C)C(=O)NC1CCCCC1	inactive: 0.999
C[C@@H]1CN([C@H](C)CO)C(=O)c2cccc(NC(=O)Nc3ccc(C(F)(F)F)cc3)c2O[C@@H]1CN(C)S(=O)(=O)c1ccc(Cl)cc1	inactive: 0.868
C[C@@H]1CN([C@@H](C)CO)C(=O)c2cccc(NC(=O)c3nc4ccccc4s3)c2O[C@@H]1CN(C)S(=O)(=O)c1cn(C)cn1	inactive: 0.995
C[C@@H]1CN([C@H](C)CO)C(=O)c2cc(C#Cc3ccccn3)cnc2O[C@H]1CN(C)C(=O)c1cnccn1	inactive: 1.01
COc1cc(N)ccc1N1CCCS1(=O)=O	inactive: 0.944
C[C@@H]1CCCCO[C@@H](CN(C)C(=O)C2CCCCC2)[C@H](C)CN([C@H](C)CO)C(=O)c2cc(NC(=O)Nc3cccc4ccccc34)ccc2O1	inactive: 1.04
Cc1noc(C)c1NC(=O)N(C)C[C@@H]1Oc2ccc(NS(C)(=O)=O)cc2CC(=O)N([C@H](C)CO)C[C@@H]1C	inactive: 0.983
Nc1ccc(O)cc1	inactive: 1.04
C[C@@H]1CN([C@H](C)CO)C(=O)c2cc(NC(=O)c3ccncc3)ccc2O[C@@H](C)CCCCO[C@H]1CN(C)C(=O)Nc1ccc(C(F)(F)F)cc1	inactive: 0.899

SMILES	relative growth
Cc1noc(C)c1NC(=O)N(C)C[C@@H]1Oc2ccc(NC(=O)c3ccncc3)cc2C(=O)N([C@H](C)CO)C[C@@H]1C	inactive: 0.979
O=C(C[C@@H]1CC[C@H]2[C@@H](COC[C@@H](O)CN2C(=O)c2cccnc2)O1)NCC1CC1	inactive: 0.991
C[C@@H]1CCCCO[C@H](CN(C)Cc2ccncc2)[C@@H](C)CN([C@@H](C)CO)C(=O)c2cc(NC(=O)NC3CCCCC3)ccc2O1	inactive: 1.02
C[C@H](CO)N1C[C@H](C)[C@H](CN(C)S(=O)(=O)c2ccc(Cl)cc2)Oc2ccc(N(C)C)cc2C1=O	inactive: 0.996
Cc1noc(C)c1S(=O)(=O)Nc1ccc2c(c1)C(=O)N([C@H](C)CO)C[C@@H](C)[C@@H](CN(C)Cc1ccc(-c3ccccc3)cc1)O2	inactive: 1
C[C@@H]1CCCCO[C@@H](CN(C)C(=O)C2CCCCC2)[C@H](C)CN([C@@H](C)CO)C(=O)c2cc(NS(=O)(=O)c3ccc(Cl)cc3)ccc2O1	inactive: 1
CCS(=O)(=O)Nc1ccc2c(c1)C(=O)N(C)[C@H]1CC[C@@H](CC(=O)NCCOC)O[C@@H]1CO2	inactive: 1
C[C@H]1CN([C@@H](C)CO)C(=O)Cc2cc(NC(=O)Nc3ccc(F)cc3)ccc2O[C@@H]1CN(C)S(=O)(=O)c1cn(C)cn1	inactive: 0.962
CC(C)Oc1ccccc1OCc1cnnn1CC(=O)NS(=O)(=O)c1ccccc1OC(F)(F)F	inactive: 1
N[C@H](C(=O)O)[C@@H](O)C(=O)O	inactive: 1.04
C=CCn1cnc2c1c(=O)[nH]c(=O)n2C	inactive: 0.982
COc1ccc(CN(C)C[C@H]2OCCCC[C@H](C)Oc3ccc(NS(=O)(=O)c4ccc(Cl)cc4)cc3C(=O)N([C@@H](C)CO)C[C@H]2C)cc1	inactive: 0.961
C[C@H]1CN([C@@H](C)CO)C(=O)c2cc(C#Cc3ccccc3F)cnc2O[C@H]1CN(C)S(=O)(=O)c1ccccc1F	inactive: 1.05
O=C(C[C@@H]1CC[C@H](NS(=O)(=O)c2ccc(F)cc2)[C@@H](CO)O1)NCc1ccc(Cl)c(Cl)c1	inactive: 0.963
COc1ccc(-c2ccc3n(c2=O)C[C@H]2[C@H](CO)[C@@H](C(=O)NCC4CC4)[C@@H]3N2S(C)(=O)=O)cc1	inactive: 1.01
NCC[C@H]1CC[C@H](NC(=O)Cc2ccncc2)[C@@H](CO)O1	inactive: 0.99
C[C@@H]1CCCCO[C@H](CN(C)S(=O)(=O)c2ccc(F)cc2)[C@H](C)CN([C@H](C)CO)C(=O)c2cc(NC(=O)Nc3cccc4ccccc34)ccc2O1	inactive: 1.03
C[C@@H]1CN([C@@H](C)CO)C(=O)c2cccc(NC(=O)c3ccc(-c4nccs4)cc3)c2O[C@@H]1CN(C)Cc1ccccc1	inactive: 1.05
COCC(=O)N(C)C[C@@H]1Oc2cc(C#Cc3cccnc3)ccc2S(=O)(=O)N([C@H](C)CO)C[C@H]1C	inactive: 1.01
Cc1cc(=O)n2ncnc2n1CC(=O)NN	inactive: 1.02
COc1ccc(S(=O)(=O)Nc2ccc3c(c2)C(=O)N([C@@H](C)CO)C[C@@H](C)[C@H](CN(C)C(=O)Nc2ccc(C(F)(F)F)cc2)OCCCC[C@H](C)O3)cc1	inactive: 1.04

SMILES	relative growth
CCS(=O)(=O)Nc1ccc2c(c1)C(=O)N(C)C[C@@H](OC)[C@H](C)CN(Cc1cccnc1)[C@H](C)CO2	inactive: 1.02
COc1ccc(S(=O)(=O)Nc2ccc3c(c2)C(=O)N([C@H](C)CO)C[C@H](C)[C@H](CN(C)C(=O)Nc2ccc4c(c2)OCO4)OCCCC[C@@H](C)O3)cc1	inactive: 0.996
C[C@H]1CN([C@@H](C)CO)C(=O)c2cccc(NC(=O)NC3CCCCC3)c2O[C@@H]1CN(C)Cc1ccc(Cl)c(Cl)c1	inactive: 0.935
COc1ccc(NC(=O)Nc2ccc3c(c2)C(=O)N([C@H](C)CO)C[C@@H](C)[C@@H](CN(C)S(=O)(=O)c2ccccc2)OCCCC[C@H](C)O3)cc1	inactive: 1.02
COCCOC(=O)N1C(=O)[C@@]2(c3cc(C#Cc4ccc(OC)cc4)ccc31)[C@H](c1ccc(O)cc1)N1[C@H](c3ccccc3)[C@H](c3ccccc3)OC(=O)[C@H]1[C@@H]2C(=O)NC[C@H](O)c1ccccc1	inactive: 1.04
NC(=O)CN1CCOCC1	inactive: 0.998
CC(=O)CCC=C(C)CCC=C(C)CCC=C(C)CCC=C(C)C	inactive: 0.937
COCCOC(=O)N1C(=O)[C@@]2(c3cc(C#Cc4ccc(OC)cc4)ccc31)[C@H](c1ccc(O)cc1)N1[C@H](c3ccccc3)[C@H](c3ccccc3)OC(=O)[C@H]1[C@@H]2C(N)=O	inactive: 0.999
CN1CCN(C(=O)C[C@H]2CC[C@@H]3[C@H](COc4ccc(NC(=O)c5cscn5)cc4C(=O)N3C)O2)CC1	inactive: 0.964
COCC(=O)N1C[C@@H](C)[C@@H](OC)CN(C)C(=O)c2ccc(NC(=O)c3ccc(OC)cc3)cc2OC[C@H]1C	inactive: 0.986
Cc1ccc(S(=O)(=O)N(C)C[C@H]2OCCCC[C@H](C)Oc3ccc(NC(=O)Nc4c(C)noc4C)cc3C(=O)N([C@@H](C)CO)C[C@@H]2C)cc1	inactive: 0.959
O=C(Cc1ccccn1)NCC[C@@H]1CC[C@@H](NC(=O)CN2CCOCC2)[C@H](CO)O1	inactive: 1
C[C@@H]1CCCCO[C@@H](CN(C)C(=O)Nc2ccc(C(F)(F)F)cc2)[C@@H](C)CN([C@H](C)CO)C(=O)c2cc(NC(=O)Cc3ccccc3)ccc2O1	inactive: 1
CC(=O)N(C)C[C@H]1Oc2ncc(C#C[C@@H](C)O)cc2C(=O)N([C@H](C)CO)C[C@H]1C	inactive: 0.998
C[C@@H]1CCCCO[C@H](CN(C)C(=O)C2CCCCC2)[C@H](C)CN([C@H](C)CO)C(=O)c2cc(NC(=O)Cc3ccccc3)ccc2O1	inactive: 1.04
CC(C)NC(=O)N[C@@H]1C=C[C@@H](CC(=O)NCCCN(C)C)O[C@@H]1CO	inactive: 1.06
C[C@H]1CN([C@@H](C)CO)C(=O)c2cc(NC(=O)CCCN(C)C)ccc2O[C@H]1CN(C)S(=O)(=O)c1cccs1	inactive: 1
C[C@@H]1CCCCO[C@H](CN(C)C(=O)Nc2ccc(F)cc2)[C@H](C)CN([C@@H](C)CO)C(=O)c2cc(NC(=O)Nc3ccc(C(F)(F)F)cc3)ccc2O1	inactive: 1
C[C@@H]1CCCCO[C@@H](CN(C)C(=O)CCC(F)(F)F)[C@H](C)CN([C@@H](C)CO)C(=O)c2cc(NC(=O)C3CCCCC3)ccc2O1	inactive: 0.98
C[C@H](CO)N1C[C@H](C)[C@H](CN(C)C)Oc2ccc(NS(C)(=O)=O)cc2CC1=O	inactive: 0.967
